Measured values taken from paper PMC8739753.

Experiments:
[1] = tested on: CC(C=CC(O)=C1C(=O)CNC1=O)=CC(C)C1OC2(C)OC(C(O)C=C2C)C1C; assay: Michaelis–Menten kinetics, TamI L244A_L295V; assay type: biochemical, Streptomyces sp. 307-9; conditions: other: compound as substrate; P450 TamI L244A_L295V
[2] = tested on: CC(/C=C/C(O)=C1/C(=O)CNC1=O)=C\[C@@H](C)[C@H]1O[C@@]2(C)O[C@H](C(=O)[C@@H]3O[C@@]32C)[C@@H]1C; assay: Michaelis–Menten kinetics, TamI L244A_L295V; assay type: biochemical, Streptomyces sp. 307-9; conditions: other: compound as substrate; P450 TamI L244A_L295V
[3] = tested on: CC1=CC(=O)[C@H]2O[C@]1(C)O[C@H]([C@H](C)/C=C(C)/C=C/C(O)=C1/C(=O)CNC1=O)[C@H]2C; assay: Michaelis–Menten kinetics, TamI L244A_L295V; assay type: biochemical, Streptomyces sp. 307-9; conditions: other: compound as substrate; P450 TamI L244A_L295V
[4] = tested on: CC1=CC[C@H]2O[C@]1(C)O[C@H]([C@H](C)/C=C(C)/C=C/C(O)=C1/C(=O)CNC1=O)[C@H]2C; assay: purified protein, by the assay type; conditions: other: compound as substrate; P450 TamI L101A_L295I
[5] = tested on: CC(/C=C/C(O)=C1/C(=O)CNC1=O)=C\[C@@H](C)[C@H]1O[C@@]2(C)O[C@H](C(=O)[C@@H]3O[C@@]32C)[C@@H]1C; assay: purified protein, by the assay type; conditions: other: compound as substrate; P450 TamI L101A_L295I
[6] = tested on: CC1=CC(=O)[C@H]2O[C@]1(C)O[C@H]([C@H](C)/C=C(C)/C=C/C(O)=C1/C(=O)CNC1=O)[C@H]2C; assay: purified protein, by the assay type; conditions: other: compound as substrate; P450 TamI L101A_L295I

| Substance | Km [1] [µM] | kcat [1] [s⁻¹] | kcat/Km [1] [M⁻¹ s⁻¹] | Km [2] [µM] | kcat [2] [s⁻¹] | kcat/Km [2] [M⁻¹ s⁻¹] | kcat/Km [3] [M⁻¹ s⁻¹] | Km [4] [µM] | kcat [4] [s⁻¹] | kcat/Km [4] [M⁻¹ s⁻¹] | kcat/Km [5] [M⁻¹ s⁻¹] | Km [6] [µM] | kcat [6] [s⁻¹] | kcat/Km [6] [M⁻¹ s⁻¹] |
| --- | --- | --- | --- | --- | --- | --- | --- | --- | --- | --- | --- | --- | --- | --- |
| P450 TamI L244A_L295V (Streptomyces sp. 307-9; L244A/L295V) | 115.6 ± 22.4 | 0.0212 ± 0.00167 | 183 | 7.0 ± 0.9 | 0.0119 ± 0.000383 | 1700 | 1000 |  |  |  |  |  |  |  |
| P450 TamI L101A_L295I (Streptomyces sp. 307-9; L101A/L295I) |  |  |  |  |  |  |  | 3.8 ± 0.6 | 0.11 ± 0.005 | 28500 | 625 | 120.1 ± 33.5 | 0.94 ± 0.16 | 7820 |
